Measurements reported in the supplement of paper PMC4604168 (melanoma cell lines).
This is one part of the list. Many values rest on one well or one pass, so single values are uncertain.

tested on: RPMI7951; assay: cell count relative to DMSO control; melanoma cells; higher = more viable cells; settings: library dose: standard library concentration; 72 h; first compound 2 µM
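Further: cells treated in 1,536-well plates, then fixed and DAPI-stained, with nuclei counted from automated high-throughput microscope images.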

| SMILES | cell count |
| --- | --- |
| C[C@@H](N)c1ccc(C(=O)Nc2ccnc3[nH]ccc23)cc1 + CO[C@@H]1[C@H](N(C)C(=O)c2ccccc2)C[C@H]2O[C@]1(C)n1c3ccccc3c3c4c(c5c6ccccc6n2c5c31)C(=O)NC4 [Midostaurin] (partner dose 0.4 µM) | 19.2% |
| Cn1sc(=O)n(Cc2ccccc2)c1=O + Nc1cccc2c1CN(C1CCC(=O)NC1=O)C2=O [lenalidomide] (partner dose 5 µM) | 95.4% |
| Cn1sc(=O)n(Cc2ccccc2)c1=O + COc1cc2c(Oc3ccc4[nH]c(C)cc4c3F)ncnc2cc1OCCCN1CCCC1 [cediranib] (partner dose 2 µM) | 73.7% |
| C[C@@H](N)c1ccc(C(=O)Nc2ccnc3[nH]ccc23)cc1 + Cn1sc(=O)n(Cc2ccccc2)c1=O [TDZD-8] (partner dose 2 µM) | 40.2% |
| C[C@@H](N)c1ccc(C(=O)Nc2ccnc3[nH]ccc23)cc1 + CC(C)C[C@H](NC(=O)[C@H](Cc1ccccc1)NC(=O)c1cnccn1)B(O)O [Bortezomib] (partner dose 0.005 µM) | 2.65% |
| CCCCCCCCCCCCCCCCCCOP(=O)([O-])OC1CC[N+](C)(C)CC1 [Perifosine] + C#Cc1cccc(Nc2ncnc3cc(OCCOC)c(OCCOC)cc23)c1 [erlotinib] (partner dose 4 µM) | 41.2% |
| Cn1sc(=O)n(Cc2ccccc2)c1=O + CNC(=O)c1cc(Oc2ccc(NC(=O)Nc3ccc(Cl)c(C(F)(F)F)c3)cc2)ccn1 [sorafenib] (partner dose 2 µM) | 60.2% |
| CCCCCCCCCCCCCCCCCCOP(=O)([O-])OC1CC[N+](C)(C)CC1 [Perifosine] + C[C@]1(c2nc3c(C(N)=O)cccc3[nH]2)CCCN1 [Veliparib] (partner dose 7 µM) | 51.4% |
| Cn1sc(=O)n(Cc2ccccc2)c1=O + Cc1cc(Nc2cc(N3CCN(C)CC3)nc(/C=C/c3ccccc3)n2)n[nH]1 [ENMD2076] (partner dose 0.2 µM) | 90.2% |
| CCCCCCCCCCCCCCCCCCOP(=O)([O-])OC1CC[N+](C)(C)CC1 [Perifosine] + COc1ccc(C2=N[C@@H](c3ccc(Cl)cc3)[C@@H](c3ccc(Cl)cc3)N2C(=O)N2CCNC(=O)C2)c(OC(C)C)c1 [Nutlin-3] (partner dose 0.5 µM) | 19.3% |
| Cn1sc(=O)n(Cc2ccccc2)c1=O + Cn1c(=O)n(-c2ccc(C(C)(C)C#N)cc2)c2c3cc(-c4cnc5ccccc5c4)ccc3ncc21 [NVP-BEZ235] (partner dose 0.02 µM) | 66.8% |
| C[C@@H](N)c1ccc(C(=O)Nc2ccnc3[nH]ccc23)cc1 + Nc1nc(F)nc2c1ncn2[C@@H]1O[C@H](CO)[C@@H](O)[C@@H]1O [fludarabine] (partner dose 1 µM) | 45.4% |
| C[C@@H](N)c1ccc(C(=O)Nc2ccnc3[nH]ccc23)cc1 + O=C(Nc1cccc(Cl)c1)Nc1ncc(CCNc2ncnc3ccsc23)s1 [SNS314] (partner dose 0.004 µM) | 50.2% |
| Cn1sc(=O)n(Cc2ccccc2)c1=O + O=C(O)c1ccc2c(c1)nc(Nc1cccc(Cl)c1)c1ccncc12 [CX4945] (partner dose 2 µM) | 98% |
| Cn1sc(=O)n(Cc2ccccc2)c1=O + COc1ccc(Cl)c(Nc2nc3ccccc3nc2NS(=O)(=O)c2cccc(NC(=O)C(C)(C)N)c2)c1 [XL147] (partner dose 4 µM) | 99.6% |
| CCCCCCCCCCCCCCCCCCOP(=O)([O-])OC1CC[N+](C)(C)CC1 [Perifosine] + Cn1nnc2c(C(N)=O)ncn2c1=O [temozolomide] (partner dose 10 µM) | 54.6% |
| CCCCCCCCCCCCCCCCCCOP(=O)([O-])OC1CC[N+](C)(C)CC1 [Perifosine] + Clc1ccc(Nc2nnc(Cc3ccncc3)c3ccccc23)cc1 [vatalanib] (partner dose 10 µM) | 38.4% |
| C[C@@H](N)c1ccc(C(=O)Nc2ccnc3[nH]ccc23)cc1 + COc1cc(Nc2ncc(F)c(Nc3ccc4c(n3)NC(=O)C(C)(C)O4)n2)cc(OC)c1OC [Tamatinib] (partner dose 2 µM) | 11.1% |
| C[C@@H](N)c1ccc(C(=O)Nc2ccnc3[nH]ccc23)cc1 + COc1cc2c(Oc3ccc4[nH]c(C)cc4c3F)ncnc2cc1OCCCN1CCCC1 [cediranib] (partner dose 2 µM) | 46.6% |
| C[C@@H](N)c1ccc(C(=O)Nc2ccnc3[nH]ccc23)cc1 + CCCCCCCCc1ccc(CCC(N)(CO)CO)cc1 [fingolimod] (partner dose 10 µM) | 0.396% |

| SMILES | cell count |
| --- | --- |
| Cn1sc(=O)n(Cc2ccccc2)c1=O + C[C@]1(O)C[C@@H](c2nc(-c3ccc4ccc(-c5ccccc5)nc4c3)c3c(N)nccn32)C1 [OSI906] (partner dose 2 µM) | 70.7% |
| Cn1sc(=O)n(Cc2ccccc2)c1=O + NC(=O)c1ccc(N(C(N)=O)c2c(F)cccc2F)nc1-c1ccc(F)cc1F [VX702] (partner dose 2 µM) | 68.1% |
| C[C@@H](N)c1ccc(C(=O)Nc2ccnc3[nH]ccc23)cc1 + Cn1cnc2c(F)c(Nc3ccc(Br)cc3Cl)c(C(=O)NOCCO)cc21 [selumetinib] (partner dose 0.075 µM) | 38.6% |
| CCCCCCCCCCCCCCCCCCOP(=O)([O-])OC1CC[N+](C)(C)CC1 [Perifosine] + CC(C)C[C@H](NC(=O)[C@H](Cc1ccccc1)NC(=O)c1cnccn1)B(O)O [Bortezomib] (partner dose 0.005 µM) | 1.59% |
| C[C@@H](N)c1ccc(C(=O)Nc2ccnc3[nH]ccc23)cc1 + CNC(=O)c1cc(Oc2ccc(NC(=O)Nc3ccc(Cl)c(C(F)(F)F)c3)cc2)ccn1 [sorafenib] (partner dose 2 µM) | 58.6% |
| CCCCCCCCCCCCCCCCCCOP(=O)([O-])OC1CC[N+](C)(C)CC1 [Perifosine] + C[C@]1(O)C[C@@H](c2nc(-c3ccc4ccc(-c5ccccc5)nc4c3)c3c(N)nccn32)C1 [OSI906] (partner dose 2 µM) | 61.7% |
| CCCCCCCCCCCCCCCCCCOP(=O)([O-])OC1CC[N+](C)(C)CC1 [Perifosine] + NC1(c2ccc(-c3nc4ccn5c(=O)[nH]nc5c4cc3-c3ccccc3)cc2)CCC1 [MK2206] (partner dose 2 µM) | 45.7% |
| CCCCCCCCCCCCCCCCCCOP(=O)([O-])OC1CC[N+](C)(C)CC1 [Perifosine] + O=c1[nH]nc(Sc2ncc([N+](=O)[O-])s2)n1-c1ccc2c(c1)OCCO2 [BI78D3] (partner dose 1 µM) | 35.4% |
| C[C@@H](N)c1ccc(C(=O)Nc2ccnc3[nH]ccc23)cc1 + NC1(c2ccc(-c3nc4ccn5c(=O)[nH]nc5c4cc3-c3ccccc3)cc2)CCC1 [MK2206] (partner dose 2 µM) | 51.2% |
| CCCCCCCCCCCCCCCCCCOP(=O)([O-])OC1CC[N+](C)(C)CC1 [Perifosine] + Cc1cn(-c2cc(NC(=O)c3ccc(C)c(Nc4nccc(-c5cccnc5)n4)c3)cc(C(F)(F)F)c2)cn1 [nilotinib] (partner dose 1 µM) | 47.3% |
| Cn1sc(=O)n(Cc2ccccc2)c1=O + CN(c1ncccc1CNc1nc(Nc2ccc3c(c2)CC(=O)N3)ncc1C(F)(F)F)S(C)(=O)=O [PF562271] (partner dose 0.4 µM) | 63% |
| C[C@@H](N)c1ccc(C(=O)Nc2ccnc3[nH]ccc23)cc1 + C=C(c1ccc(C(=O)O)cc1)c1cc2c(cc1C)C(C)(C)CCC2(C)C [Bexarotene] (partner dose 10 µM) | 57.1% |
| CCCCCCCCCCCCCCCCCCOP(=O)([O-])OC1CC[N+](C)(C)CC1 [Perifosine] + Cc1cc(Nc2cc(N3CCN(C)CC3)nc(/C=C/c3ccccc3)n2)n[nH]1 [ENMD2076] (partner dose 0.2 µM) | 19.4% |
| C[C@@H](N)c1ccc(C(=O)Nc2ccnc3[nH]ccc23)cc1 + CN(NC(=O)CC(=O)NN(C)C(=S)c1ccccc1)C(=S)c1ccccc1 [STA4783] (partner dose 0.03 µM) | 40.2% |
| Cn1sc(=O)n(Cc2ccccc2)c1=O + COc1cc(Nc2ncc(F)c(Nc3ccc4c(n3)NC(=O)C(C)(C)O4)n2)cc(OC)c1OC [Tamatinib] (partner dose 2 µM) | 57% |
| CCCCCCCCCCCCCCCCCCOP(=O)([O-])OC1CC[N+](C)(C)CC1 [Perifosine] + OCc1c[nH]c2ccccc12 [Indole-3-carbinol] (partner dose 4 µM) | 37.5% |
| C[C@@H](N)c1ccc(C(=O)Nc2ccnc3[nH]ccc23)cc1 + CS(=O)(=O)CCNCc1ccc(-c2ccc3ncnc(Nc4ccc(OCc5cccc(F)c5)c(Cl)c4)c3c2)o1 [lapatinib] (partner dose 4 µM) | 32.8% |
| Cn1sc(=O)n(Cc2ccccc2)c1=O + O=C(O)c1ccc(-c2c[nH]c3ncc(-c4ccccc4)cc23)cc1C1CCCC1 [GSK650394] (partner dose 0.8 µM) | 50.5% |
| Cn1sc(=O)n(Cc2ccccc2)c1=O + Cn1nnc2c(C(N)=O)ncn2c1=O [temozolomide] (partner dose 10 µM) | 62.6% |
